# About 2,200 (0.71%) of roughly 310,000 compounds showed an effect of 50% or more. The effect is printed as a negative number. The list shows a part of the results.
# Target: human ether-à-go-go-related gene (hERG) potassium channel (human, UniProt Q12809)
# Test: primary screen, population patch clamp on CHO cells stably expressing hERG
# Chain of human ether-à-go-go-related gene (hERG) potassium channel (Q12809 whole entry, looked up): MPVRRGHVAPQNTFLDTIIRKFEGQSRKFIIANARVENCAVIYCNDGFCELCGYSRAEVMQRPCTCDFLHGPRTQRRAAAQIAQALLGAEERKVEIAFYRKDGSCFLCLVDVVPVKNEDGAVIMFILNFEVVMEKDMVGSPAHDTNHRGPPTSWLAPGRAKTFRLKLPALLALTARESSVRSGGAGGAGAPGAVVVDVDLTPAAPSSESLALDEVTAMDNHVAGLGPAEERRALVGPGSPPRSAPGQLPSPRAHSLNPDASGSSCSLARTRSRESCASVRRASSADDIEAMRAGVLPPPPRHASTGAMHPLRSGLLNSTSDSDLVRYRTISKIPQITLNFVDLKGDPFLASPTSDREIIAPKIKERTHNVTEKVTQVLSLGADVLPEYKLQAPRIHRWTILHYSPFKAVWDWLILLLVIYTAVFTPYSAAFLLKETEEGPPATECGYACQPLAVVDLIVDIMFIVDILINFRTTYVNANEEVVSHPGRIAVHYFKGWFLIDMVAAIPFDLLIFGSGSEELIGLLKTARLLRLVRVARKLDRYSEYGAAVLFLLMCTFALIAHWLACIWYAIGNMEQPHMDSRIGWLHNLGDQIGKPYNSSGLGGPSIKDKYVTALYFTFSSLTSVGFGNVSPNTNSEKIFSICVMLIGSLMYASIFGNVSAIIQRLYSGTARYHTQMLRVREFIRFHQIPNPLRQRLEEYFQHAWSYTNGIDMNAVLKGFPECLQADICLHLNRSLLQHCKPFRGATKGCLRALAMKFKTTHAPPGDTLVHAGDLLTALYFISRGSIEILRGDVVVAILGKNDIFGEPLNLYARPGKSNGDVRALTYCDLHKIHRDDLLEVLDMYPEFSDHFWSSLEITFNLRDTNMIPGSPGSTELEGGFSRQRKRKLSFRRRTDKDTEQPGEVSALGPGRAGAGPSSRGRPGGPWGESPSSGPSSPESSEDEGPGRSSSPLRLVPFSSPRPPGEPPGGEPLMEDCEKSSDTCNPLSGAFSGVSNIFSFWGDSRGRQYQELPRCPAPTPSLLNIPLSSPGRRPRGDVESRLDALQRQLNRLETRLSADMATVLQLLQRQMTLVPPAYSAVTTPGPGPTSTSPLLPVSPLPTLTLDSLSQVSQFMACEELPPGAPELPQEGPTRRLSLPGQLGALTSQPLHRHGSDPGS
row,Compound,"hERG current change (%, negative = inhibition) at 1uM [%]"
1,CSc1ccc(CN2CCC(n3nccc3NC(=O)c3ccccc3C)CC2)cc1,-83.8
2,O=C(Nc1cccc(F)c1)Nc1c[nH]c(=O)[nH]c1=O,9.77
3,Cc1ccc(C)c(NC(=O)Cn2nnc(C(=O)NCc3cccs3)c2N)c1,12.3
4,COc1ccc2c(=O)cc(-c3ccccc3)n(C)c2c1,3.76
5,CCCc1[nH]n(-c2nc3ccccc3s2)c(=O)c1C=NCCCN(CC)CC,-57.6
6,CCC(Oc1ccccc1)C(=O)NC1CCCCCC1 (centres unmarked),8.64
7,O=C(NCc1ccccc1OC(F)(F)F)C1CCC(=O)N(CCc2ccccn2)C1 (centres unmarked),6.11
8,O=S(=O)(NCCCN1CCN(c2ccccc2F)CC1)c1cccc2cccnc12,-11.9
9,C=CCn1c(SCC(=O)N2CCCCC2)nc(O)cc1=O,4.63
10,C=CCn1c(C)cc(C2=NNC(=Nc3ccc(C)cc3)SC2)c1C,8.24
11,COc1ccccc1-n1c(CNC(=O)c2ccco2)nnc1SCC(=O)Nc1ccc(F)cc1,5
12,COc1ccccc1OCCNC(=O)C(CCSC)NC(=O)c1ccccc1Cl (centres unmarked),5.88
13,COC(=O)c1cccc(Oc2nc3c(c(=O)n(C)c(=O)n3C)n2C(C)C)c1,6.15
14,CCN=c1scc(-c2ccc(F)cc2)n1/N=C/c1ccccn1,11.2
15,CS(=O)(=O)N(Cc1ccccc1)c1ccc(C(=O)Nc2cccnc2)cc1,1.83
16,COc1ccc(Nc2cc(=O)n(C3CCCCC3)c(=O)[nH]2)c(OC)c1,7.36
17,COC(=O)c1ccc(NC(=O)COc2coc(CN3CCc4ccccc43)cc2=O)cc1,7.9
18,CCCCc1nc(Cl)c(C#N)c2c1CCCC2,5.82
19,O=C(COc1cc2oc(=O)c3c(c2cc1Cl)CCC3)NCc1ccncc1,9.1
20,Cn1c(SCC(=O)NC(C)(C)C)nnc1-c1cccc(NC(=O)c2ccccc2F)c1,4.89
21,N#Cc1c(-c2ccco2)cc(-c2ccccn2)nc1N,10.6
22,Cn1c(C(=O)N2CCc3ccccc3C2)cc2oc3ccccc3c21,15
23,CSc1ccc(NC(=O)NCc2cccnc2)cc1,16.4

row,Compound,"hERG current change (%, negative = inhibition) at 1uM [%]"
1,CCCC[N+]12CCC(CC1)C(=C(c1ccccc1)c1ccccc1)C2.[Br-],-43.7
2,CCN(C(=O)COC(=O)CSc1ccc(C(N)=O)cc1[N+](=O)[O-])C1CCCCC1,4.2
3,CCOC(=O)CNC(=O)CSc1nnc(-c2ccccc2)c(-c2ccccc2)n1,16.3
4,COc1ccc(CNC(=O)CN2C(=O)CSc3ccc(S(=O)(=O)N4CCOCC4)cc32)c(OC)c1,13.1
5,O=C(Nc1ccnn1C1CCN(CCCC2CCCC2)CC1)c1ccccc1Cl,-99
6,COc1ccc(NC(=O)CSCC(=O)N=c2sccn2C)cc1,7.94
7,CSCC(O)Cn1ncc2ccccc2c1=O (centres unmarked),11.8
8,CCOc1ccccc1NC(=O)CN1C(=O)COc2ccc(S(=O)(=O)N3CCOCC3)cc21,5.42
9,CCC(/C=N/NC(=O)C(N)=O)CC,15.8
10,CC(C)CNC(=O)c1cc(-c2ccc(Cl)c(Cl)c2)on1,3.97
11,OCCC1CN(Cc2ccc(-n3cccn3)cc2)CCN1Cc1ccccc1 (centres unmarked),-28.5
12,CCn1c(CC(=O)Nc2ccc(C)cc2)nnc1SCC(=O)N1CCN(c2ccccc2)CC1,7.87
13,O=C(CSCCO)N1CCc2ccccc21,-7.03
14,Cc1cc(NCCCN(C)C)n2nc(-c3cccs3)cc2n1,0.952
15,COc1cc(C(C)=O)ccc1OCC(O)CN1CCN(c2ccccc2)CC1 (centres unmarked),1.08
16,COc1ccccc1-n1cnc2cc(NCc3ccccc3O)ccc21,6.52
17,CC(C)c1ccc(Nc2nnc(SCC(=O)Nc3ncc(S(=O)(=O)c4ccc([N+](=O)[O-])cc4)s3)s2)cc1,5.87
18,CCOC(=O)c1c(N/N=C/c2ccncc2)n[nH]c1C,0.746
19,CCCCN(C(=O)c1ccc2c(c1)OCO2)c1ccccc1,11
20,Cc1ccc2c(c1)N(C(=O)CCC(=O)NCCCN1CCOCC1)CCO2,13.9
21,COc1ccc(N2CCN(S(=O)(=O)c3ccc4c(c3)N(C(C)=O)CCO4)CC2)cc1,12.6
22,COc1ccc(O)c(/C=N/NS(=O)(=O)c2ccc(C)cc2)c1,13
23,O=C(COC(=O)COc1ccc(Cl)cc1)NC1CCS(=O)(=O)C1 (centres unmarked),5.83

row,Compound,"hERG current change (%, negative = inhibition) at 1uM [%]"
1,O=C(O)c1[nH]c2ccccc2c1-c1ccccc1,0.536
2,CC(Nc1oc(-c2ccco2)nc1C#N)c1ccccc1 (centres unmarked),17.2
3,CCCC(CCC)C(=O)Nc1ccc2c(c1)N(C(=O)CN1CCN(C)CC1)c1ccccc1CC2,3.33
4,COC(=O)c1ccccc1OS(=O)(=O)N(C)C,14.2
5,O=S(=O)(NCc1ccc(F)cc1)c1ccc(-n2cnnn2)cc1,13.9
6,CCc1nc2nc(C)c(NS(=O)(=O)c3ccc(C4CCCCC4)cc3)c(=O)n2[nH]1,13.5
7,COc1cc(-c2cc(OC)c3c(C)oc(C)c3c(=O)c2)ccc1O,3.44
8,O=C(CCN1CCN(CC(=O)Nc2ccccc2F)CC1)Nc1ccccc1F,-38.4
9,O=C(NCC(c1ccco1)N1CCCC1)c1ccc(S(=O)(=O)Nc2ccccc2Cl)cc1 (centres unmarked),6.69
10,CCOc1cc(-c2cc(-c3ccc(OC)cc3)nc(N)c2C#N)ccc1O,-1.14
11,CCOC(=O)c1c(C)[nH]c(C)c1C(=O)CSc1nc2ccccc2[nH]1,13.8
12,Cc1[nH]nc2c1C1(CCOC1C)C(C#N)=C(N)O2 (centres unmarked),14.9
13,c1ccc(-c2n[nH]c3ccccc23)cc1,11.4
14,COc1ccc(OC)c(NC(=O)C(=O)c2cn(CC(=O)N3CCCC3)c3ccccc23)c1,15.5
15,Cc1cc(NC(=O)CN2CCN(c3ccc(O)cc3)CC2)no1,1.35
16,CCSc1nnc(N(CCC(=O)O)CCC(=O)O)s1,3.87
17,O=C(CN1CCN(CC(=O)Nc2cccc(F)c2)CC1)Nc1ccc(-c2ccccc2)cc1,13.6
18,Cc1ccc(C)c(S(=O)(=O)/N=C2\C=C(NS(=O)(=O)c3ccccc3)C(=O)c3ccccc32)c1,5.4
19,CCNC(=O)CSc1nnc(CN2CCCCCC2=O)n1-c1ccccn1,17.1
20,Cl.O=c1[nH]oc2c1CCNC2,11.8
21,Cc1c(C)c2c(OCC(=O)NCCCO)cc3c(c2oc1=O)CCC(C)(C)O3,13.9
22,CCCCCc1nc2sc3c(c2c(=O)n1N)CCC3,11.3
23,COc1ccc(Br)cc1CSC(=N)N.Cl,7.17

row,Compound,"hERG current change (%, negative = inhibition) at 1uM [%]"
1,CCOc1ccc(CCNC(=O)C2CCN(S(=O)(=O)N3CCC(C)CC3)CC2)cc1OCC,9.47
2,COn1c2c(c3c4nonc4ccc31)CCCC2,-7.45
3,OCCN1CCN(c2nc(-c3ccccc3)c3cc(Cl)ccc3n2)CC1,9.67
4,COc1ccc(S(=O)Cc2ccc(C(=O)NCc3cccc(OC)c3)o2)cc1 (centres unmarked),9.34
5,Cc1ccc(C)c(NC(=O)COc2coc(CN3CCc4ccccc43)cc2=O)c1,14.3
6,CC(=O)Nc1nc2ccccc2n1Cc1ccccc1Cl,-1.44
7,O=C(NNC(=O)c1ccccc1F)c1cccc(Cl)c1,11.5
8,Cc1cc(C)c(C)c(S(=O)(=O)N2CCCN(C)CC2)c1C,12.8
9,O=c1cc(Cl)c(-c2ccccc2)n[nH]1,10.3
10,NC(=O)Nc1ccc(C(=O)N2CCN(S(=O)(=O)Cc3ccccc3)CC2)cc1,11.9
11,Cn1c2c(c(=O)n(C)c1=O)C(c1ccc(Cl)cc1)C(C#N)=C(N)O2 (centres unmarked),-2.65
12,N#C/C(=C/c1cn(CC(=O)O)c2ccccc12)C(=O)NCc1ccccc1,12
13,CN1CCc2nc3sc(C#N)c(N)c3c(-c3cccs3)c2C1,-41
14,O=C(/C=C/c1ccccc1)NNC(=O)C1CC1,-1.98
15,NC(=O)c1cc([N+](=O)[O-])ccc1NCC1CCCCC1,5.53
16,CCCCn1c(CN2CCN(C)CC2)nc2ccccc21,-31.4
17,CCC(OC(=O)c1cccs1)C(=O)NCc1ccc2c(c1)OCO2 (centres unmarked),11
18,CN(C)C(CNC(=O)c1cccs1)c1ccco1 (centres unmarked),10.3
19,CC(O)C(O)C(O)C(O)/C=N/NC(=O)c1ccccc1 (centres unmarked),11.3
20,COc1ccc(CC(=O)NCc2ccccc2)cc1,11.8
21,COc1ccc(-n2nc(C(=O)NCC(=O)N(C)Cc3ccccc3)c3ccccc3c2=O)cc1,14
22,O=C(COc1ccc(Br)cc1)N(Cc1ccccc1)c1ccccn1,11.4
23,NC(=O)Cc1ccc2c(c1)[nH]c1ccccc12,12.4

# Source: article PMC4336329 (PLoS ONE, 2015)
